Measured values as given in the supplement of paper PMC8728848.
The list shows a part of the results.

Key:
Experiment in all cases: glycan array binding signal (z-score within array); higher = stronger binding
Details in all cases: glycan notation: IUPAC condensed, linker removed
[1] = biological target: Glc(b1-2)Glc(b1-2)Glc(b1-2)Glc(b1-2)Glc(b1-2)Glc(b1-2)Glc(b1-2)Glc(b1-2)Glc(b1-2)Glc(b1-2)Glc
Procedure, shortened: (§1)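 Negative Z-scores can be read as non-binding. The Z-score is calculated within each array and then averaged across arrays of one protein sequence at different concentrations or buffers and across linkers. Arrays, 3228 in all, were curated from the Consortium for Functional Glycomics database and kept only where the protein sequence was available.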

[2] = biological target: Glc(b1-2)Glc(b1-2)Glc(b1-2)Glc(b1-2)Glc(b1-2)Glc(b1-2)Glc(b1-2)Glc(b1-2)Glc(b1-2)Glc(b1-2)Glc(b1-2)Glc
Procedure, shortened: as §1

[3] = biological target: Glc(b1-2)Glc(b1-2)Glc(b1-2)Glc(b1-2)Glc(b1-2)Glc(b1-2)Glc(b1-2)Glc(b1-2)Glc(b1-2)Glc(b1-2)Glc(b1-2)Glc(b1-2)Glc
Procedure, shortened: as §1

[4] = biological target: Glc(b1-3)Glc
Procedure, shortened: as §1

[5] = biological target: Glc(b1-3)Glc(b1-3)Glc
Procedure, shortened: as §1

[6] = biological target: Glc(b1-3)Glc(b1-3)Glc(b1-3)Glc
Procedure, shortened: as §1

[7] = biological target: Glc(b1-3)Glc(b1-3)Glc(b1-3)Glc(b1-3)Glc
Procedure, shortened: as §1

[8] = biological target: Glc(b1-3)Glc(b1-3)Glc(b1-3)Glc(b1-3)Glc(b1-3)Glc
Procedure, shortened: as §1

[9] = biological target: Glc(b1-3)Glc(b1-3)Glc(b1-3)Glc(b1-3)Glc(b1-3)Glc(b1-3)Glc
Procedure, shortened: as §1

[10] = biological target: Glc(b1-3)Glc(b1-3)Glc(b1-3)Glc(b1-3)Glc(b1-3)Glc(b1-3)Glc(b1-3)Glc
Procedure, shortened: as §1

[11] = biological target: Glc(b1-3)Glc(b1-3)Glc(b1-3)Glc(b1-3)Glc(b1-3)Glc(b1-3)Glc(b1-3)Glc(b1-3)Glc
Procedure, shortened: as §1

[12] = biological target: Glc(b1-3)Glc(b1-3)Glc(b1-3)Glc(b1-3)Glc(b1-3)Glc(b1-3)Glc(b1-3)Glc(b1-3)Glc(b1-3)Glc
Procedure, shortened: as §1

[13] = biological target: Glc(b1-3)Glc(b1-3)Glc(b1-3)Glc(b1-3)Glc(b1-3)Glc(b1-3)Glc(b1-3)Glc(b1-3)Glc(b1-3)Glc(b1-3)Glc
Procedure, shortened: as §1

[14] = biological target: Glc(b1-3)Glc(b1-3)Glc(b1-3)Glc(b1-3)Glc(b1-3)Glc(b1-3)Glc(b1-3)Glc(b1-3)Glc(b1-3)Glc(b1-3)Glc(b1-3)Glc
Procedure, shortened: as §1

[15] = biological target: Glc(b1-3)Glc(b1-3)Glc(b1-3)Glc(b1-3)Glc(b1-3)Glc(b1-3)Glc(b1-3)Glc(b1-3)Glc(b1-3)Glc(b1-3)Glc(b1-3)Glc(b1-3)Glc
Procedure, shortened: as §1

[16] = biological target: Glc(b1-3)Glc(b1-3)Glc(b1-3)Glc(b1-3)Glc(b1-3)Glc(b1-3)Glc(b1-3)[Glc(b1-6)]Glc(b1-3)Glc
Procedure, shortened: as §1

[17] = biological target: Glc(b1-3)Glc(b1-3)Glc(b1-3)Glc(b1-3)Glc(b1-3)Glc(b1-3)[Glc(b1-6)]Glc(b1-3)Glc(b1-3)Glc
Procedure, shortened: as §1

[18] = biological target: Glc(b1-3)Glc(b1-3)Glc(b1-3)Glc(b1-3)[Glc(b1-6)]Glc(b1-3)Glc(b1-3)Glc(b1-3)Glc(b1-3)Glc
Procedure, shortened: as §1

[19] = biological target: Glc(b1-3)Glc(b1-3)Glc(b1-3)[Glc(b1-6)]Glc(b1-3)Glc(b1-3)Glc(b1-3)Glc(b1-3)[Glc(b1-6)]Glc(b1-3)Glc
Procedure, shortened: as §1

[20] = biological target: Glc(b1-3)Glc(b1-3)[Glc(b1-6)]Glc(b1-3)Glc(b1-3)Glc(b1-3)Glc(b1-3)Glc(b1-3)Glc(b1-3)Glc
Procedure, shortened: as §1

[21] = biological target: Glc(b1-3)Glc(b1-4)Glc
Procedure, shortened: as §1

[22] = biological target: Glc(b1-3)Glc(b1-4)Glc(b1-4)Glc
Procedure, shortened: as §1

[23] = biological target: Glc(b1-3)Glc(b1-4)Glc(b1-6)Glc(b1-4)Glc
Procedure, shortened: as §1

[24] = biological target: Glc(b1-3)[Glc(b1-6)]Glc(a1-3)Glc(b1-3)[Glc(b1-6)]Glc
Procedure, shortened: as §1

[25] = biological target: Glc(b1-3)[Glc(b1-6)]Glc(b1-3)Glc(b1-3)Glc(b1-3)Glc(b1-3)Glc(b1-3)Glc(b1-3)Glc
Procedure, shortened: as §1

[26] = biological target: Glc(b1-4)Glc
Procedure, shortened: as §1

[27] = biological target: Glc(b1-4)Glc(b1-3)Glc
Procedure, shortened: as §1

[28] = biological target: Glc(b1-4)Glc(b1-3)Glc(b1-4)Glc
Procedure, shortened: as §1

[29] = biological target: Glc(b1-4)Glc(b1-4)Glc
Procedure, shortened: as §1

[30] = biological target: Glc(b1-4)Glc(b1-4)Glc(b1-3)Glc
Procedure, shortened: as §1

[31] = biological target: Glc(b1-4)Glc(b1-4)Glc(b1-3)Glc(b1-4)Glc(b1-4)Glc(b1-3)Glc
Procedure, shortened: as §1

[32] = biological target: Glc(b1-4)Glc(b1-4)Glc(b1-4)Glc
Procedure, shortened: as §1

[33] = biological target: Glc(b1-4)Glc(b1-4)Glc(b1-4)Glc(b1-3)Glc
Procedure, shortened: as §1

[34] = biological target: Glc(b1-4)Glc(b1-4)Glc(b1-4)Glc(b1-4)Glc
Procedure, shortened: as §1

[35] = biological target: Glc(b1-4)Glc(b1-4)Glc(b1-4)Glc(b1-4)Glc(b1-4)Glc
Procedure, shortened: as §1

[36] = biological target: Glc(b1-4)Glc(b1-4)Glc(b1-4)Glc(b1-4)Glc(b1-4)Glc(b1-4)Glc
Procedure, shortened: as §1

[37] = biological target: Glc(b1-4)Glc(b1-4)Glc(b1-4)Glc(b1-4)Glc(b1-4)Glc(b1-4)Glc(b1-4)Glc
Procedure, shortened: as §1

[38] = biological target: Glc(b1-4)Glc(b1-4)Glc(b1-4)Glc(b1-4)Glc(b1-4)Glc(b1-4)Glc(b1-4)Glc(b1-4)Glc
Procedure, shortened: as §1

[39] = biological target: Glc(b1-4)Glc(b1-4)Glc(b1-4)Glc(b1-4)Glc(b1-4)Glc(b1-4)Glc(b1-4)Glc(b1-4)Glc(b1-4)Glc
Procedure, shortened: as §1

[40] = biological target: Glc(b1-4)Glc(b1-4)Glc(b1-4)Glc(b1-4)Glc(b1-4)Glc(b1-4)Glc(b1-4)Glc(b1-4)Glc(b1-4)Glc(b1-4)Glc
Procedure, shortened: as §1

[41] = biological target: Glc(b1-4)Glc(b1-4)Glc(b1-4)Glc(b1-4)Glc(b1-4)Glc(b1-4)Glc(b1-4)Glc(b1-4)Glc(b1-4)Glc(b1-4)Glc(b1-4)Glc
Procedure, shortened: as §1

[42] = biological target: Glc(b1-4)Glc(b1-4)Glc(b1-4)Glc(b1-4)Glc(b1-4)Glc(b1-4)Glc(b1-4)Glc(b1-4)Glc(b1-4)Glc(b1-4)Glc(b1-4)Glc(b1-4)Glc
Procedure, shortened: as §1

[43] = biological target: Glc(b1-6)Glc
Procedure, shortened: as §1

[44] = biological target: Glc(b1-6)Glc(b1-6)Glc
Procedure, shortened: as §1

[45] = biological target: Glc(b1-6)Glc(b1-6)Glc(b1-6)Glc
Procedure, shortened: as §1

[46] = biological target: Glc(b1-6)Glc(b1-6)Glc(b1-6)Glc(b1-6)Glc
Procedure, shortened: as §1

[47] = biological target: Glc(b1-6)Glc(b1-6)Glc(b1-6)Glc(b1-6)Glc(b1-6)Glc
Procedure, shortened: as §1

[48] = biological target: Glc(b1-6)Glc(b1-6)Glc(b1-6)Glc(b1-6)Glc(b1-6)Glc(b1-6)Glc
Procedure, shortened: as §1

[49] = biological target: Glc(b1-6)Glc(b1-6)Glc(b1-6)Glc(b1-6)Glc(b1-6)Glc(b1-6)Glc(b1-6)Glc
Procedure, shortened: as §1

[50] = biological target: Glc(b1-6)Glc(b1-6)Glc(b1-6)Glc(b1-6)Glc(b1-6)Glc(b1-6)Glc(b1-6)Glc(b1-6)Glc
Procedure, shortened: as §1

[51] = biological target: Glc(b1-6)Glc(b1-6)Glc(b1-6)Glc(b1-6)Glc(b1-6)Glc(b1-6)Glc(b1-6)Glc(b1-6)Glc(b1-6)Glc
Procedure, shortened: as §1

[52] = biological target: Glc(b1-6)Glc(b1-6)Glc(b1-6)Glc(b1-6)Glc(b1-6)Glc(b1-6)Glc(b1-6)Glc(b1-6)Glc(b1-6)Glc(b1-6)Glc
Procedure, shortened: as §1

[53] = biological target: Glc(b1-6)Glc(b1-6)Glc(b1-6)Glc(b1-6)Glc(b1-6)Glc(b1-6)Glc(b1-6)Glc(b1-6)Glc(b1-6)Glc(b1-6)Glc(b1-6)Glc(b1-6)Glc(b1-6)Glc(b1-6)Glc
Procedure, shortened: as §1

[54] = biological target: Man(b1-4)Man(b1-4)Man(b1-4)Man
Procedure, shortened: as §1

[55] = biological target: Man(b1-4)Man(b1-4)Man(b1-4)Man(b1-4)Man
Procedure, shortened: as §1

[56] = biological target: Man(b1-4)Man(b1-4)Man(b1-4)Man(b1-4)Man(b1-4)Man
Procedure, shortened: as §1

[57] = biological target: Xyl(b1-4)Xyl(b1-4)Xyl(b1-4)Xyl(b1-4)Xyl
Procedure, shortened: as §1

[58] = biological target: Xyl(b1-4)Xyl(b1-4)Xyl(b1-4)Xyl(b1-4)Xyl(b1-4)Xyl
Procedure, shortened: as §1

B1: Cel5A (Cellvibrio mixtus), A0A266Q9Z0 (protein)
chain: TSVAGCSGVTAWNSTAVYTGGNEVVRNGVKYQAKWWTQGQDPVTNSSADGVWANKGQC
[1]
  glycan array binding signal (z-score): 1.13
[2]
  glycan array binding signal (z-score): 0.794
[3]
  glycan array binding signal (z-score): 1.13
[4]
  glycan array binding signal (z-score): -0.499
[5]
  glycan array binding signal (z-score): -0.257
[6]
  glycan array binding signal (z-score): 1
[7]
  glycan array binding signal (z-score): 0.939
[8]
  glycan array binding signal (z-score): 0.723
[9]
  glycan array binding signal (z-score): 0.483
[10]
  glycan array binding signal (z-score): 2.06
[11]
  glycan array binding signal (z-score): 1.42
[12]
  glycan array binding signal (z-score): 1.21
[13]
  glycan array binding signal (z-score): 1.25
[14]
  glycan array binding signal (z-score): 1.84
[15]
  glycan array binding signal (z-score): 0.966
[16]
  glycan array binding signal (z-score): 1.97
[17]
  glycan array binding signal (z-score): 1.47
[18]
  glycan array binding signal (z-score): 1.41
[19]
  glycan array binding signal (z-score): 1.19
[20]
  glycan array binding signal (z-score): 2.2
[21]
  glycan array binding signal (z-score): -0.136
[22]
  glycan array binding signal (z-score): 0.834
[23]
  glycan array binding signal (z-score): 1.37
[24]
  glycan array binding signal (z-score): 2.44
[25]
  glycan array binding signal (z-score): 0.587
[26]
  glycan array binding signal (z-score): -0.392
[27]
  glycan array binding signal (z-score): 0.442
[28]
  glycan array binding signal (z-score): 1.38
[29]
  glycan array binding signal (z-score): 0.459
[30]
  glycan array binding signal (z-score): 1.38
[31]
  glycan array binding signal (z-score): 1.58
[32]
  glycan array binding signal (z-score): 0.357
[33]
  glycan array binding signal (z-score): 1.17
[34]
  glycan array binding signal (z-score): 0.113
[35]
  glycan array binding signal (z-score): -0.176
[36]
  glycan array binding signal (z-score): 0.429
[37]
  glycan array binding signal (z-score): 0.589
[38]
  glycan array binding signal (z-score): 1.64
[39]
  glycan array binding signal (z-score): 1.49
[40]
  glycan array binding signal (z-score): 0.954
[41]
  glycan array binding signal (z-score): 0.533
[42]
  glycan array binding signal (z-score): 0.785
[43]
  glycan array binding signal (z-score): -0.52
[44]
  glycan array binding signal (z-score): -0.261
[45]
  glycan array binding signal (z-score): 0.013
[46]
  glycan array binding signal (z-score): 0.234
[47]
  glycan array binding signal (z-score): 0.329
[48]
  glycan array binding signal (z-score): 0.052
[49]
  glycan array binding signal (z-score): -0.107
[50]
  glycan array binding signal (z-score): -0.24
[51]
  glycan array binding signal (z-score): -0.113
[52]
  glycan array binding signal (z-score): -0.553
[53]
  glycan array binding signal (z-score): -0.119
[54]
  glycan array binding signal (z-score): -0.854
[55]
  glycan array binding signal (z-score): -0.556
[56]
  glycan array binding signal (z-score): -0.777
[57]
  glycan array binding signal (z-score): -0.71
[58]
  glycan array binding signal (z-score): -0.672
